Consider 21 molecules from PubChem BioAssay AID206 (DTP/NCI, 2004).

Results filed as inconclusive are left out. Some entries of the source have several records that differ or are many. The other results are left out here. There may be further records. Results that share an entry repeat one measurement across runs, samples, wells, individuals or studies.

The experiment deals with nude mice, HT29 intrarenal xenograft, tumor weight T/C. Nature of the experiment: NCI In Vivo Anticancer Drug Screen. Data for tumor model HT29;CX-1 Human Adenocarcinoma (MER+) (intrarenal inoculation) in NU/NU Swiss (nude) mice. To be noted: endpoint: mean tumor weight change, higher = larger tumour. The method, then:
The antitumor activity of compounds was measured in mice bearing transplantable tumors. Survival or tumor size were measured and the results are expressed as the measurement made in the treated group (T) divided by the measurement made in the vehicle treated control group (C). The tumor model used in this assay is HT29;CX-1 Human Adenocarcinoma (MER+) (intrarenal inoculation) in NU/NU Swiss (nude) mice

`ClC(Cl)(Cl)C1=NCc2nnn(Cc3ccccc3)c2N1`: the T/C is 30 % of control and 105 % of control (dose: 225.0 mg/kg/injection, schedule: Q04DX004 (sc), vehicle: saline with Tween-80); 82 % of control and 112 % of control (dose: 450.0 mg/kg/injection, schedule: Q04DX004 (sc), vehicle: saline with Tween-80); 14 % of control and 83 % of control (dose: 900.0 mg/kg/injection, schedule: Q04DX004 (sc), vehicle: saline with Tween-80); 63 % of control and 93 % of control (dose: 1800.0 mg/kg/injection, schedule: Q04DX004 (sc), vehicle: saline with Tween-80).

`CC(C)NC(=O)OCc1c(COC(=O)NC(C)C)c(-c2ccc(Cl)c(Cl)c2)n2c1CCC2`: the T/C (dose: 400.0 mg/kg/injection, schedule: Q01DX010 (sc), vehicle: distilled water + Tween-80) is 18 % of control and 65 % of control.

Take `COc1ccc(CC2C(=O)NC(C)C(=O)N(C)C3C(=O)N(C)C(Cc4ccc(O)c(c4)Oc4ccc(cc4)C3O)C(=O)NC(C)C(=O)NC(C)C(=O)N2C)cc1` (stereo not given): the T/C reads like this: (dose: 0.5 mg/kg/injection, schedule: Q01DX010 (sc), vehicle: saline with Tween-80) 23 % of control and 58 % of control; (dose: 1.0 mg/kg/injection, schedule: Q01DX010 (sc), vehicle: saline with Tween-80) 3 % of control, 33 % of control, 62 % of control; (dose: 2.0 mg/kg/injection, schedule: Q01DX010 (sc), vehicle: saline with Tween-80) -47 % of control, 94 % of control, 160 % of control.

`CN(C)C1C(=O)C(C(=O)NP(=O)(NCCCO)N(CCCl)CCCl)=C(O)C2(O)C(=O)C3=C(O)c4c(O)cccc4C(C)(O)C3CC12` (stereo not given): the T/C (dose: 150.0 mg/kg/injection, schedule: Q04DX004 (sc), vehicle: saline with Tween-80) is on record as 51 % of control, 67 % of control, 87 % of control.

As for `COP12(OCCO1)SC(C(F)(F)F)=C(C(F)(F)F)S2`, the T/C (dose: 125.0 mg/kg/injection, schedule: Q04DX004 (sc), vehicle: saline with Tween-80) was -11 % of control, 68 % of control, 95 % of control; the T/C (dose: 250.0 mg/kg/injection, schedule: Q04DX004 (sc), vehicle: saline with Tween-80) is 6 % of control, 46 % of control, 99 % of control; the T/C (dose: 500.0 mg/kg/injection, schedule: Q04DX004 (sc), vehicle: saline with Tween-80) was 13 % of control, 84 % of control, 155 % of control; the T/C (dose: 1000.0 mg/kg/injection, schedule: Q04DX004 (sc), vehicle: saline with Tween-80) was 44 % of control and 121 % of control.

As to `CC1(C)N=C(N)N=C(N)N1c1ccc(CCCCc2ccc(S(=O)(=O)F)cc2Cl)c(Cl)c1`, the T/C (dose: 25.0 mg/kg/injection, schedule: Q01DX010 (sc), vehicle: saline) is 30 % of control and 117 % of control.

With `O=C([CH-]C(=O)C(F)(F)F)c1ccccc1.O=C([CH-]C(=O)C(F)(F)F)c1ccccc1.O=C([CH-]C(=O)C(F)(F)F)c1ccccc1.O=C([CH-]C(=O)C(F)(F)F)c1ccccc1.[Eu+3].c1ccncc1`, the T/C is 56 % of control, 101 % of control, 115 % of control (dose: 200.0 mg/kg/injection, schedule: Q01DX010 (sc), vehicle: Klucel (hydroxypropylcellulose) (HPC)) and 38 % of control, 41 % of control, 71 % of control (dose: 400.0 mg/kg/injection, schedule: Q01DX010 (sc), vehicle: Klucel (hydroxypropylcellulose) (HPC)).

For `CC[C@@]1(O)C(=O)OCc2c1cc1n(c2=O)Cc2cc3cc(O)ccc3nc2-1`, the T/C is, setting by setting: (dose: 8.0 mg/kg/injection, schedule: Q04DX004 (sc), vehicle: suspension in saline) -20 % of control and 18 % of control; (dose: 16.0 mg/kg/injection, schedule: Q04DX004 (sc), vehicle: suspension in saline) -53 % of control and 4 % of control; (dose: 32.0 mg/kg/injection, schedule: Q04DX004 (sc), vehicle: suspension in saline) -97 % of control and -14 % of control; (dose: 64.0 mg/kg/injection, schedule: Q04DX004 (sc), vehicle: suspension in saline) -98 % of control and -42 % of control.

As to `CC(C)=CC(=O)OC1C2C(C)=CC(=O)C(O)C2(C)C2C3(O)OCC24C(CC(=O)OC14)C(C)C3O` (stereo not given), the T/C is 21 % of control and 75 % of control (dose: 2.5 mg/kg/injection, schedule: Q04DX004 (sc), vehicle: distilled water + Tween-80); 7 % of control and 96 % of control (dose: 5.0 mg/kg/injection, schedule: Q04DX004 (sc), vehicle: distilled water + Tween-80).

Turning to `CNc1nc(N(C)C)nc(N(C)C)n1`, the T/C (dose: 30.0 mg/kg/injection, schedule: Q01DX010 (sc), vehicle: water) is listed as 64 % of control, 84 % of control, 201 % of control; the T/C (dose: 60.0 mg/kg/injection, schedule: Q01DX010 (sc), vehicle: water) is 25 % of control, 90 % of control, 98 % of control; the T/C (dose: 120.0 mg/kg/injection, schedule: Q01DX010 (sc), vehicle: water) was 8 % of control and 38 % of control.

As to `CCOC(OCC)C(=O)OCC(=O)[C@]1(O)Cc2c(O)c3c(c(O)c2[C@@H](OC2CC(N)C(O)C(C)O2)C1)C(=O)c1c(OC)cccc1C3=O` (stereo not given in full), the T/C by setting is: (dose: 2.5 mg/kg/injection, schedule: Q04DX004 (sc), vehicle: water) 22 % of control, 74 % of control, 89 % of control; (dose: 5.0 mg/kg/injection, schedule: Q04DX004 (sc), vehicle: water) 23 % of control, 66 % of control, 78 % of control; (dose: 10.0 mg/kg/injection, schedule: Q04DX004 (sc), vehicle: water) 16 % of control and 51 % of control.

For `COc1cccc2c1C(=O)c1c(O)c3c(c(O)c1C2=O)C[C@@](O)(C(C)=O)C[C@@H]3OC1CC(N)C(O)C(C)O1` (stereo not given in full), the T/C (dose: 2.0 mg/kg/injection, schedule: Q01DX010 (sc), vehicle: saline) was 41 % of control and 201 % of control; the T/C (dose: 4.0 mg/kg/injection, schedule: Q01DX010 (sc), vehicle: saline) is listed as 11 % of control, 47 % of control, 49 % of control.

As for `O=C(O)C(CSC(c1ccccc1)(c1ccccc1)c1ccccc1)N=Cc1cccs1` (stereo not given), the T/C reads like this: (dose: 100.0 mg/kg/injection, schedule: Q04DX004 (sc), vehicle: suspension in saline) 11 % of control and 104 % of control; (dose: 400.0 mg/kg/injection, schedule: Q04DX004 (sc), vehicle: suspension in saline) 40 % of control and 78 % of control.

As to `COc1cccc2c1C(=O)c1c(O)c3c(c(O)c1C2=O)C[C@@](O)(C(=O)CO)C[C@@H]3OC1CC(N)C(O)C(C)O1` (stereo not given in full), the T/C was -14 % of control and 102 % of control (dose: 0.5 mg/kg/injection, schedule: Q01DX010 (ip), vehicle: water); 19 % of control, 25 % of control, 94 % of control (dose: 0.5 mg/kg/injection, schedule: Q01DX010 (sc), vehicle: water); -31 % of control and 91 % of control (dose: 1.0 mg/kg/injection, schedule: Q01DX010 (ip), vehicle: water).

Consider `Oc1ccccc1C=NCCC[N-]CCCN=Cc1ccccc1O.[Co]`, for which the T/C (dose: 50.0 mg/kg/injection, schedule: Q01DX010 (sc), vehicle: suspension in saline) is 47 % of control and 77 % of control.

As to `Cc1c(N)nc([C@H](CC(N)=O)NC[C@H](N)C(N)=O)nc1C(=O)N[C@H](C(=O)N[C@H](C)[C@@H](O)[C@H](C)C(=O)N[C@H](C(=O)NCCc1nc(-c2nc(C(=O)NCCC[S+](C)C)cs2)cs1)[C@@H](C)O)C(OC1OC(CO)C(O)C(O)C1OC1OC(CO)C(O)C(OC(N)=O)C1O)c1cnc[nH]1` (stereo not given in full), the T/C is 19 % of control and 91 % of control (dose: 16.0 mg/kg/injection, schedule: Q01DX010 (sc), vehicle: saline); 17 % of control and 91 % of control (dose: 32.0 mg/kg/injection, schedule: Q01DX010 (sc), vehicle: saline).

Regarding `CNC(=O)ON(C(C)=O)C(=O)NC`, the T/C (dose: 100.0 mg/kg/injection, schedule: Q04DX004 (sc), vehicle: saline) was 40 % of control and 75 % of control.

Take `CN(C)C=O`: the T/C runs as follows: (dose: 800.0 mg/kg/injection, schedule: Q01DX010 (sc), vehicle: saline) 43 % of control and 75 % of control; (dose: 1600.0 mg/kg/injection, schedule: Q01DX010 (sc), vehicle: saline) 48 % of control and 77 % of control.

For the molecule `CN1c2c(nc(N)[nH]c2=O)NCC1CCNc1ccc(C(=O)NC(CCC(=O)O)C(=O)O)cc1` (stereo not given), the T/C (dose: 200.0 mg/kg/injection, schedule: Q01DX010 (sc), vehicle: saline) is 57 % of control and 107 % of control.

Regarding `CCC1(O)CC2CN(CCc3c([nH]c4ccccc34)C(C(=O)OC)(c3cc4c(cc3OC)N(C)C3C(O)(C(N)=O)C(O)C5(CC)C=CCN6CCC43C65)C2)C1` (stereo not given) (tested in a mixture with another compound), the T/C is, setting by setting: (dose: 3.0 mg/kg/injection, schedule: Q04DX004 (sc), vehicle: water) 18 % of control, 40 % of control, 75 % of control; (dose: 6.0 mg/kg/injection, schedule: Q04DX004 (sc), vehicle: water) -14 % of control, 2 % of control, 45 % of control.

On to `CC1CN1C(=O)NCCCCCCNC(=O)N1CC1C` (stereo not given), for which, under “dose: 20.0 mg/kg/injection, schedule: Q04DX004 (sc), vehicle: Klucel (hydroxypropylcellulose) (HPC)”, the T/C was 15 % of control and 120 % of control.
